Values joined by “and” are separate entries in the source; they are usually repeats but may differ in a detail not shown here. Equal entries are not always repeated. This list was built around the results that the source calls inconclusive (neither active nor inactive); the mix of calls is not that of the screen. Potencies beside an inconclusive call are fits to weak or partial responses and may not hold up. The source holds several records for some structures; these can differ, active in one and inactive in another. Active and inactive are the calls of the source. Unless noted, the call rests on the fitted dose curve; in most records, active means well fitted curve in the direction sought with a large enough effect in the repeat runs; inconclusive means weak or mixed curves; inactive means no such curve, though single readings can be large; an effect the other way counts as inactive or inconclusive.
What was measured:
[1] = qHTS assay to identify small molecule antagonists of the androgen receptor (AR) signaling pathway using the MDA cell line in the presence of 0.5 nM R1881 - cell viability counter screen (AID 1259242); conditions: MDA-kb2 viability, CellTiter-Fluor protease fluorescence, 16 h; series mostly up to 92.4 µM; further: nearly all actives have a fitted effect of over 45% in size
Outline: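 Fluorescence from CellTiter-Fluor, which reports protease activity of live cells, was read 30 min after reagent addition to MDA-kb2 cells that had been incubated 16 hr with compound and 0.5 nM R1881.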

[2] = qHTS assay to identify small molecule agonists of the sonic hedgehog signaling (Shh) pathway - cell viability counter screen (AID 1259366); conditions: NIH/3T3 Gli1-Luc viability, CellTiter-Fluor, 24 h; series mostly up to 92.4 µM; further: nearly all actives have a fitted effect of over 50% in size
Outline: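 NIH/3T3-derived 3T3 Gli1-Luc cells (stable Gli1-responsive firefly luciferase reporter) were seeded, rested 4 hr at 37 C/5% CO2, then exposed to compounds in DMSO for 24 hr; viability was read by CellTiter-Fluor fluorescence in the same wells.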

[3] = qHTS assay to identify small molecule antagonists of the sonic hedgehog signaling (Shh) pathway - cell viability counter screen (AID 1259367); conditions: NIH/3T3 Gli1-Luc viability, CellTiter-Fluor, 24 h; series mostly up to 92.4 µM; further: nearly all actives have a fitted effect of over 55% in size
Outline: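 After a 4 hr settling period, 3T3 Gli1-Luc cells were treated with DMSO-dissolved chemicals and conditioned medium, kept 24 hr at 37C in 5% CO2, and assayed for viability by CellTiter-Fluor fluorescence following 1 hr reagent incubation.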

[4] = target: Estrogen receptor beta (Homo sapiens) (UniProt Q92731); experiment: qHTS assay to identify small molecule antagonists of the estrogen receptor beta (ER-beta) signaling pathway (AID 1259378; active means well fitted inhibition curve with a large enough effect in the signal ratio in the repeat runs, not every such curve was filed as active; inconclusive means weak or mixed curves, or effect the other way; inactive means no such curve, though single readings can be large or run the other way; the % refers to the signal ratio; on activity, negative = inhibition: on the % scale 0 is the no-effect control and ±100 the full control effect); conditions: ER-beta-UAS-bla HEK293T, beta-lactamase FRET ratio, 16 h; activity, negative = inhibition: at 92.4 µM (top of the series) unless noted
Outline: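 ER-beta-UAS-bla HEK293T (GripTite) cells in 2% charcoal-stripped FBS medium were preincubated 6 hr at 37C, dosed with compound, then stimulated with 1 nM E2 (final) for 16 hr; beta-lactamase reporter read by B/G FRET fluorescence after 2 hr substrate loading.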

[5] = qHTS assay to identify small molecule agonists of the estrogen receptor beta (ER-beta) signaling pathway - cell viability counter screen (AID 1259380); conditions: ER-beta-bla HEK293T viability, CellTiter-Glo luminescence, 16 h; series mostly up to 92.4 µM; further: nearly all actives have a fitted effect of over 30% in size
Outline: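 Viability of ER-beta-UAS-bla HEK293T cells was determined by CellTiter-Glo luminescence following 16 hr treatment with test compounds at 37C.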

[6] = qHTS assay to identify small molecule phospholipidosis (PLD) inducers (AID 1259344; active means well fitted curve in the direction sought with a large enough effect; inconclusive means small, poorly fitted or top-dose-only effect, or another doubt; inactive means no such curve, though single readings can be large; an effect the other way counts as inactive or inconclusive); conditions: HepG2 phospholipidosis, LipidTOX Red imaging, 24 h; series mostly up to 38.3 µM
Outline: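 HepG2 cells grown on collagen I take up LipidTOX Red while exposed to compound for 24 h; after fixation they are imaged at 20x and pit metrics are extracted.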

[7] = qHTS assay to identify small molecule agonists of the androgen receptor (AR) signaling pathway in the presence of an antagonist - cell viability counter screen (AID 1259379); conditions: MDA-kb2 viability, CellTiter-Fluor, 16 h; series mostly up to 92.4 µM; further: nearly all actives have a fitted effect of over 25% in size
Outline: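 In MDA-kb2 cells (human breast carcinoma, MMTV-luciferase), compounds at 15 concentrations plus 3.0uM nilutamide; 16 hr, 37C, 0% CO2; CellTiter-Fluor fluorescence read for viability.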

[8] = qHTS assay to identify small molecule antagonists of the sonic hedgehog signaling (Shh) pathway (AID 1259369; calls by dose curve; further: nearly all actives have a fitted effect of over 45% in size); conditions: NIH/3T3 Gli1-Luc reporter, Shh antagonist, luminescence 24 h; series mostly up to 92.4 µM
Outline: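 Screening used 3T3Gli1-Luc cells at 2,000 per well, compounds delivered in DMSO, and conditioned medium as agonist stimulus; plates incubated 24hr at 37 C and 5% CO2 before a 30min luciferase step.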

[9] = target: Estrogen receptor beta (Homo sapiens) (UniProt Q92731); experiment: qHTS assay to identify small molecule agonists of the estrogen receptor beta (ER-beta) signaling pathway (AID 1259377; active means well fitted activation curve with a large enough effect in the signal ratio in the repeat runs, not every such curve was filed as active; inconclusive means weak or mixed curves, or effect the other way; the % refers to the signal ratio; on activation: on the % scale 0 is the no-effect control and ±100 the full control effect); conditions: ER-beta-UAS-bla HEK293T, beta-lactamase FRET ratio, 16 h
Outline: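 ER-beta-UAS-bla HEK293T (GripTite) cells carrying a UAS-driven beta-lactamase reporter, in medium with 2% charcoal-stripped FBS, were exposed to compounds for 16 hr at 37C; LiveBLAzer B/G FRET substrate was then added and fluorescence read after 2 hours at room temperature.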

[10] = target: Androgen receptor (Homo sapiens) (UniProt P10275); experiment: qHTS assay to identify small molecule antagonists of the androgen receptor (AR) signaling pathway using the MDA cell line in the presence of 0.5 nM R1881 (AID 1259243); conditions: MDA-kb2 MMTV-luciferase, R1881 0.5 nM, 16 h; series mostly up to 42.5 µM; further: nearly all actives have a fitted effect of over 50% in size; on activity, negative = inhibition: on the % scale 0 is the no-effect control and ±100 the full control effect
Outline: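 Inhibition of R1881 (0.5 nM final) induced reporter signal was measured in human MDA-kb2 cells; note the MMTV promoter also responds to GR. Exposure lasted 16 hr at 37C.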

[11] = qHTS assay to identify small molecule antagonists of the estrogen receptor beta (ER-beta) signaling pathway - cell viability counter screen (AID 1259382); conditions: ER-beta-UAS-bla HEK293T viability, CellTiter-Glo luminescence, 16 h; series mostly up to 92.4 µM; further: nearly all actives have a fitted effect of over 55% in size
Outline: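 Tox21 10K library tested in qHTS format on ER-beta-bla HEK293T cells stimulated with 1nM E2; 16 hr treatment at 37C. Same-well CellTiter-Glo luminescence served as the cell viability measure.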

[12] = activation: at 92.4 µM (top of the series) unless noted
Potency means the concentration at half of the fitted maximal effect; tags describe the fitted curve by direction and shape or compound fluorescence and quenching.

UniProt P10275, sequence (P10275 whole entry, looked up): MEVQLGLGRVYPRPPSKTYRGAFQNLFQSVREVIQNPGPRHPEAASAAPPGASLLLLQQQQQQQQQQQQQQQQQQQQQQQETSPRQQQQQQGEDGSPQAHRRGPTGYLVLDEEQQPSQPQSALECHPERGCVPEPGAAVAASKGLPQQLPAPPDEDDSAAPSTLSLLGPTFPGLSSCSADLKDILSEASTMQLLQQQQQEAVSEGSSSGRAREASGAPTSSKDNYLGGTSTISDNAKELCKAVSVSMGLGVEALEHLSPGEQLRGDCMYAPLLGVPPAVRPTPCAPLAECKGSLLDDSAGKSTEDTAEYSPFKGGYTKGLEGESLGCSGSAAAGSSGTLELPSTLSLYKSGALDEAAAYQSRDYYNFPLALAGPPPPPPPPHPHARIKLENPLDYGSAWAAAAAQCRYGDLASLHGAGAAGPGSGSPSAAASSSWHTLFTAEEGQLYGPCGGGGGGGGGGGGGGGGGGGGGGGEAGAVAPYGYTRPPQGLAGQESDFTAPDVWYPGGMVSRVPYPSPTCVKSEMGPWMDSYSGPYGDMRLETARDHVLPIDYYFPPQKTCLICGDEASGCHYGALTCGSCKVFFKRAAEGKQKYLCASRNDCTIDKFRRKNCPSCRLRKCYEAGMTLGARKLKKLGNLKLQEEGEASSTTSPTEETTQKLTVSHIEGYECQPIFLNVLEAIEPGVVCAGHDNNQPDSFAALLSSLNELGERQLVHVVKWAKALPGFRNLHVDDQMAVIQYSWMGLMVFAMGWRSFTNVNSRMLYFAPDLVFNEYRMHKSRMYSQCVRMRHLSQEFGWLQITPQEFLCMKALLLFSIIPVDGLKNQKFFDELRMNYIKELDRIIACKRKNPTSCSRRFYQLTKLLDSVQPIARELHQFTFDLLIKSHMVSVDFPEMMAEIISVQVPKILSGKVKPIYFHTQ
UniProt Q92731, sequence (Q92731 whole entry, looked up): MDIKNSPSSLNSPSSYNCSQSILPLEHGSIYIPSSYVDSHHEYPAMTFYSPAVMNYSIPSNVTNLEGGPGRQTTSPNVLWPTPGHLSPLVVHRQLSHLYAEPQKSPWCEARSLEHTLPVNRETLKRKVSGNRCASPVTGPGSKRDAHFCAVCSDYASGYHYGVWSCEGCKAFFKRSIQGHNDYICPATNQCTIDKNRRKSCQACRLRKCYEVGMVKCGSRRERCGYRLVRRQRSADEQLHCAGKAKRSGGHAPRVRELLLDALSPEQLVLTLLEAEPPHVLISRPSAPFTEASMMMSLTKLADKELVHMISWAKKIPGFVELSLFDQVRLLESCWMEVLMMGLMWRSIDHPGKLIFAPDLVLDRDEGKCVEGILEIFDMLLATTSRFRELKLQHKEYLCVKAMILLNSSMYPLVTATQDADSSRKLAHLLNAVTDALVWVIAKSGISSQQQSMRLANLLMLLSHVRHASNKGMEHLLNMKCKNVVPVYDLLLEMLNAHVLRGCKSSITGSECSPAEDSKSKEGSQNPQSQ

O=Cc1ccccc1C=O
Potency [1]: inconclusive: 61.1 µM [cytotoxic, partial curve, poor fit]
Potency [2]: active: 61.1 µM
Potency [3]: active: 54.5 µM
Potency [4]: active: 54.5 µM
Potency [5]: inconclusive: 7.7 µM [cytotoxic, full curve]

CCCC(C(=O)OCCN(CC)CC)(c1ccccc1)c1ccccc1
Potency [1]: inconclusive: 33.5 µM [cytotoxic, single point]
Potency [6]: inconclusive: 22.4 µM [activator, single point]
Potency [2]: inconclusive: 10.6 µM [cytotoxic, partial curve, poor fit]
Potency [7]: inconclusive: 23.7 µM [cytotoxic, partial curve]

CCCOC(=O)c1cc(O)c(O)c(O)c1
Potency [1]: inactive
Potency [2]: inconclusive: 61.1 µM [cytotoxic]
Potency [3]: inconclusive: 27.2 µM [cytotoxic, partial curve]
Potency [8]: active: 12.1 µM and inconclusive: 15.4 µM [inhibitor, full curve]
activation [9, 12]: inconclusive: 9.13%
activation ([9]; at 92.4 µM (top of the series)): inactive: 0.649%
activity, negative = inhibition [4]: inconclusive: -39.4% and inconclusive: -33.1%

COCCc1ccc(OCC(O)CNC(C)C)cc1 (stereo unspecified)
Potency [1]: inactive
Potency [6]: inconclusive: 3.16 µM [activator, single point]
Potency [2]: inactive
activation [9, 12]: inconclusive: 12.9%
Potency [4]: inconclusive: 43.3 µM [inhibitor, partial curve]

CN(C)c1ccc(C(c2ccccc2)c2ccc(N(C)C)cc2)cc1
Potency [10]: inconclusive: 54.5 µM [inhibitor, partial curve]
Potency [11]: inconclusive: 15.4 µM [cytotoxic, partial curve]

O=C1c2ccccc2-c2ccccc21
Potency [10]: inconclusive: 55.9 µM [inhibitor, partial curve]
Potency [2]: inactive

Nc1ccc(Cl)cc1[N+](=O)[O-]
Potency [10]: active: 27 µM
Potency [8]: inactive
activation [9, 12]: inconclusive: 14%
Potency [7]: inconclusive: 27 µM [cytotoxic, partial curve]
Potency [5]: inactive

Cc1cccc(Nc2ccccc2)c1
Potency [10]: active: 24.3 µM
Potency [8]: inactive

CCCCCCCCCCCCC
Potency [1]: inactive
Potency [7]: inactive

CCCCCC[C@@H](O)C/C=C\CCCCCCCC(=O)OCC(O)CO (stereo partly specified)
Potency [10]: inactive
Potency [8]: inconclusive: 19.3 µM [inhibitor, full curve]
Potency [5]: inconclusive: 68.6 µM [cytotoxic, partial curve]
Potency [11]: inconclusive: 30.6 µM [cytotoxic, partial curve]

COC(=O)c1cc(S(N)(=O)=O)ccc1OC
Potency [10]: inactive

O=C(O)Cn1c(C(=O)Nc2nc(-c3ccccc3Cl)cs2)cc2ccccc21
Potency [1]: inactive
Potency [5]: inconclusive: 13.3 µM [cytotoxic, full curve]

CC(=O)c1ccccn1
Potency [1]: inactive
Potency [8]: inconclusive: 1.37 µM [inhibitor, single point]
Potency [5]: inconclusive: 0.246 µM [cytotoxic, single point]

Cc1ccc(CCn2c3c(c4cc(Cl)ccc42)CN(C)CC3)cn1
Potency [10]: inconclusive: 33.5 µM [inhibitor, partial curve, poor fit]
Potency [2]: inconclusive: 13.3 µM [cytotoxic, partial curve]
Potency [3]: inconclusive: 13.3 µM [cytotoxic, partial curve, poor fit]
Potency [8]: inconclusive: 23.7 µM [inhibitor, partial curve]

C1CCCCC1
Potency [1]: inactive
Potency [9, 12]: inconclusive: 56 µM [activator, partial curve]

Cc1ccc(O)c([C@H](CCN(C(C)C)C(C)C)c2ccccc2)c1
Potency [1]: inconclusive: 33.5 µM [cytotoxic, partial curve, poor fit]
Potency [7]: inconclusive: 26.6 µM [cytotoxic, partial curve]
Potency [11]: inconclusive: 26.6 µM [cytotoxic, partial curve]

C/C(=C(/OCCOc1ccc(Cl)cc1)c1ccc(Cl)cc1Cl)n1ccnc1
Potency [1]: inactive
Potency [8]: inconclusive: 26.6 µM [inhibitor]
Potency [9, 12]: inactive
Potency [4]: active: 13.3 µM
Potency [11]: inconclusive: 29.8 µM [cytotoxic, partial curve]

O=C(CCN1CCN(CCO)CC1)N1c2ccccc2Sc2ccc(C(F)(F)F)cc21
Potency [10]: inactive
Potency [3]: inconclusive: 29.8 µM [cytotoxic, partial curve, poor fit]

Cc1[nH]cnc1-c1ccc(Cl)cc1
Potency [10]: inconclusive: 13.3 µM [inhibitor, full curve]

Source: PubChem BioAssay (Tox21)
